# According to the supplement of paper PMC11417369:
# The list shows a part of the results.
# System: PfSIP2 AP2 domain 1 (GST-tagged)
# Experiment: gcPBM binding intensity (ln(normalized median fluorescence intensity)); higher = stronger DNA binding
# In short: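 Probes on an Agilent 4 × 180k array were primer-extended, double-stranded and 36 bp long, taken from intergenic genomic regions, with negative controls added. GST-tagged P. falciparum DNA-binding domains from E. coli, about 25 μg on average, were applied to the array for 1 h in 1× PBS containing 1% milk, 0.2 mg/ml BSA, 0.5% salmon testes DNA and 0.03% Triton X-100. Binding intensity, obtained after Alexa488 anti-GST antibody detection and a 488 nm scan, is the highest Masliner-normalised natural-log median intensity across replicate spots of either probe orientation.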
row,Sequence,gcPBM binding intensity (ln)
1,ATTTATTTATATTTAGTGCAATACTATTTTTAAATA [GTGCAC_site9886],7.57
2,ATTTTATCATAATAAAGTACAAAGATGCAAATAATA [XGTACX_site2270],7.29
3,GTAATGTCGTCGTTTTGTACATATTTTTATAAAAAG [XGTACX_site2688],7.53
4,AAAAAAAAAAAGAACTCACACATAATAATGTATATG [CACACA_site4974],6.69
5,AAAGGAGACAGAATAAGAATAAATATTATACATATA [XGTACX_negctrl_site412],6.76
6,TATTAGTCGAATGATGTACACACATACAAAACATTT [CACACA_site9331],6.96
7,TTAAAATTATATCTGTGTACATAAATTGTGTAACTA [XGTACX_site1966],6.9
8,ATTTAAAAAAAAATGGCACACATTTTAATTTTATGT [CACACA_site1740],6.68
9,TTTTTAATGATCAGACGTACAGTTATGAAGAAATTT [XGTACX_site6394],7.08
10,TTTTTGTTTCGTTACGCATGCCAAAAGTAAAAATAT [TGCATGCA_site536],7.45
11,TTGTGTCATATATTTTGTAATCAAAATAATTTTATT [TGCATGCA_negctrl_site307],6.92
12,ATAATGTTCCTATGATGTACTTATAATTATCATTTT [XGTACX_site4017],7.1
13,ATTAAAATAATATAAACACACATATACTTTTTTCTA [CACACA_site565],6.91
14,TATTGTTCGTTTAAGGTGCTATTGTTTGCAAAATAT [GTGCAC_site9412],8.54
15,AAGAGGTTATTACATTCACATAACATCAATATACGT [GTGCAC_negctrl_site264],6.85
16,TGGGAAAACCCCAGAAGTACGCTTAATATAAAAAAT [XGTACX_site697],6.8
17,TGTAGTCTGGAGAAAAGTACATAGTATCTGATAACC [XGTACX_site2018],7.09
18,GTGCATATATGATATACACACAATATAATAGTATGT [CACACA_site2460],9.12
19,AAGAGTTTGAAGTTTGCACACTACGTTAAAAATAAA [CACACA_site3939],7.16
20,AATATAATGTAATATACACACATATATTTCTCTTTT [CACACA_site5451],6.81
21,CCACATTTTACAGACACACACAATTTATATTACGGT [CACACA_site1894],7.16
22,AAAAATTTATTTTTAGGTACACAATTGAATTATTTA [XGTACX_site7008],6.81

row,Sequence,gcPBM binding intensity (ln)
1,ATAATAAAAAAAAAATGTACATAAATCTAAAATCCT [XGTACX_site5823],6.88
2,ATATATTTAAATAAAAGTACGTAAAGGTATATTTAA [XGTACX_site8088],7.05
3,TGAAGAAAATATTAATGTACATATTATATATATATA [XGTACX_site5497],8.58
4,CCTCCCATTTTTACACGTACACATTTAAAATAGACT [XGTACX_site5640],7.67
5,GTATTTTTTTTAATATGTACATATAAAATATTTTAT [XGTACX_site8329],7.45
6,AATACAATTTATAACACACACACAATAATACATATA [CACACA_site1252],7.18
7,ATATAAGTTTATATATGTACATATATATATTATATA [XGTACX_site2068],7.27
8,AATTCATTTAAAAGTTGTACAAGCTTAATAAAAAAA [XGTACX_site6073],7.01
9,ATATACACATAAAGTAGTACACCTGAAATTTTTTTT [XGTACX_site2951],7.21
10,GAGGATATATTATATGTACACACATATATAACGGAT [CACACA_site8361],7.19
11,CCCATGCATTTTTGCACACACATATATATATAAATA [CACACA_site1430],8.4
12,AATTAAAAATATAAATGTACATATATGTAAAACTTT [XGTACX_site123],7.11
13,AATATATGAATTAGAAGTACAAATAAATATTTATTT [XGTACX_site2062],7.04
14,TTAATCATAAAAGTCACACATAATAAGAAAAAGCTT [CACACA_site4616],6.88
15,ATATAATAGAAGTGTACACACATATTTATGTCTGTA [CACACA_site3121],7.14
16,ATGGATAACAATATGTGTACACATTTATATCTCCAC [XGTACX_site5457],7.32
17,AAGCATGGATATTTTACACACATTTCCACGTAACAA [CACACA_site3141],6.77
18,ATACATTTTTTTTATACGCACACGTCATACTTTTAA [CACACA_site1638],7.35
19,CTAGCAAATACATACACACACACACCGATACATATA [CACACA_site9164],7.13
20,ACAAGACAGATATATACACACATACATACATACATA [CACACA_site7472],7.17
21,ATATTTATTTATATTACACACATGTGCAATTAAACT [CACACA_site6928],7.07
22,TTTCTTAAAAAAAAAAAAAAAAGAAGATAAATAAAA [CACACA_negctrl_site289],6.61

row,Sequence,gcPBM binding intensity (ln)
1,TTTAACTTATTCAATGCACACATTTTAATAAGATAT [CACACA_site1967],7.16
2,TCACATGGAAAAAAGTGTACATAATTATGTATAAAT [XGTACX_site2827],7.18
3,TATAAAAAATAAAAAGTTTAATGAATATTTCTTTTA [TGCATGCA_negctrl_site379],6.52
4,ATATATATAACATATACACACGTTCATATATATATA [CACACA_site4416],9.1
5,TAATTTTTATTTTATTTTATTTTTTTTTTTTTTATT [CACACA_negctrl_site1671],6.86
6,TTACAAGTAAAAGGTACACACATTATATATACAAAT [CACACA_site8290],7.11
7,TCCCTAAAAAATGATAAATGGAGACAATTCCGACAA [GTGCAC_negctrl_site209],6.83
8,TTATATATATTTAAATTTTATCTCACATATATATAT [TGCATGCA_negctrl_site275],8.52
9,AAAAAAAAAAAAATCACACACAATATGAATTTATAG [CACACA_site601],6.97
10,AATACAATTTCTAGCACACAAAATATTATTATAATT [CACACA_site3223],7.06
11,TATAGAAGCGTTCACACACACACATACATACCCATA [CACACA_site4915],7.13
12,AAAAAACAATCTCATACACACTAGGGATTAATTATT [CACACA_site5051],6.93
13,ATCATATGTATGCATACACACAAAAAGTTATTTATA [CACACA_site6325],7.06
14,GAAAATCAGTTAAACACACACATAAAAAAAAAAAAA [CACACA_site2875],6.89
15,TCAAGTATTAAAATGGGTACATAAATATGTGTATAT [XGTACX_site5884],7.16
16,CATATAAAAAAATAGACACACATTTTATATAATACG [CACACA_site1896],7.01
17,TATTTTTCTTTTTTTTTTTTTTTTATATTATACGTG [XGTACX_negctrl_site363],6.89
18,CTTTTTAAATTAAAATGTACAGAAAAATATTATTAT [XGTACX_site8760],7.04
19,TATTTGTAAATCGATACACACATATATCTTAATATA [CACACA_site4273],6.72
20,TGGATAATGAATGATGCACACTAAAAATATTCTACA [CACACA_site5912],8.55
21,CGGCACGTGATATATACACACATATAGATATATACA [CACACA_site6408],6.96
22,ATATATACTATATTTTAACACACAAAAAAAAAAAAT [CACACA_site8277],7.01

row,Sequence,gcPBM binding intensity (ln)
1,CTCAATATTATTACTACACACAAATTAATATTTTCC [CACACA_site55],7.01
2,CTTTTTTCAAGACACACACACAAGAAAATATAAATA [CACACA_site7455],7.17
3,TGTTAATTGAATGCAATCTGAATTTTTTTACATAAT [CACACA_negctrl_site1002],6.67
4,CACCCACCCAGACACACACACACAAAAAAAAAAAGA [CACACA_site499],7.48
5,TTTTTTTTTTTTAAATGTACTTATCAACTTTTATAT [XGTACX_site4641],6.89
6,ACTTATATTATAAATTGTACAAATATTATATTTGGT [XGTACX_site1424],7.02
7,CACTTACATAATTATTGTACAGATATTATCAAATAA [XGTACX_site567],7.41
8,TTATTTTGTTTATTATGTACACAAAGACATAATAAT [XGTACX_site5648],7.35
9,AATAAAATAATCCAAGTGCATATGTAAAAATACATT [GTGCAC_site9576],7.95
10,AATATATGTAAATGGACACACACATATATATATATA [CACACA_site9220],9.61
11,AAAAAAAAAAGACACACACACACACGCATATACATA [CACACA_site7289],7.04
12,ACGGACAATACGGAAACACACAAGTTATTTTATCAT [CACACA_site7310],7.06
13,TACGTAAAAATAATACGTACATATATTTATAGAAAA [XGTACX_site4959],7.13
14,TTCTGTGTCTAAAAATGTACGGGAATATATAAAAGT [XGTACX_site2090],7.74
15,ACATAATATATATATTAACACACATCCTTTTATGTA [CACACA_site8317],7.33
16,AACCATGTTAACAATGCATGCATCACTATATAAACG [TGCATGCA_site421],6.84
17,ATACATATATATAGGTGTACATATAATATATATATA [XGTACX_site2228],8.27
18,TTTAATTTTACATGAGAAACATATTACAATAAAATA [GTGCAC_negctrl_site606],6.89
19,GAAATACCGGAAAGCAAACACACATTTTAAAACCAT [CACACA_site3861],6.98
20,ATATTTTTTGGAAAGTGTACAATATTATATATTAAA [XGTACX_site2163],7.02
21,ATATATGTAACATATTGTACATATATGTATGTATGT [XGTACX_site3281],7.64
22,ATGATAAAATTATGTAGTACATATTTGAATGTAAAT [XGTACX_site688],7
